Measured values from PubChem BioAssay (NCATS).
Inconclusive means that the source gave no clear call. Such entries were picked first, then a sample of the others. Potencies beside an inconclusive call are fits to weak or partial responses and may not hold up. Active and inactive are the calls of the source. The call rests on the fitted dose curve; in most records, active means well fitted cell-killing curve with a large enough effect; inconclusive means small, poorly fitted or top-dose-only effect, or effect the other way; inactive means no such curve, though single readings can be large or run the other way.

Assay: Viability qHTS for spleen associated tyrosine kinase inhibitor (SYKi) naive MV4-11 cells (AID 1963823); further: nearly all actives have a fitted effect of over 40% in size
Details: MV4-11 AML viability, CellTiter-Glo luminescence, 72 h; viability (% of control): at 45 µM (top of the series)
Method in brief: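 Read-out: CellTiter-Glo luminescence. Exposure: 72 hr, 37 C, 5% CO2, 95% humidity. Cells: MV4-11 without SYK inhibitor history, 500/well, qHTS format.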
Potency means the concentration at half of the fitted maximal effect; tags describe the fitted curve by direction and shape.

SMILES | Potency | viability (% of control)
COc1ccc2cc(-c3cc(-c4cc(Cl)cc(Cl)c4)nn3C(C)c3ccc(C(=O)NCCC(=O)O)cc3)ccc2c1 (stereo not drawn) | active: 23.1 µM | 
C=C[C@@]1(C)CC(=O)C2[C@](C)(O1)[C@@H](OC(C)=O)[C@@H](O)[C@H]1C(C)(C)CCC[C@]21C (stereo partly drawn) |  | inactive: 97.8% [at 9.25 µM]
CCC(C(=O)OCCOCCN(CC)CC)c1ccccc1 (stereo not drawn) | inactive | 
CCN(CC)C(=O)Nc1ccc(OCC(O)CNC(C)(C)C)c(C(C)=O)c1 (stereo not drawn) | inconclusive: 0.9 nM and inactive | 
Cc1cc(N)c2ccccc2[n+]1CCCCCCCCCC[n+]1c(C)cc(N)c2ccccc21 | inconclusive: 1.3 µM [cytotoxic, full curve] | 
C[C@@H]1O[C@@H](O[C@H]2[C@H](OC(=O)[C@]34CCC(C)(C)C[C@H]3C3=CCC5[C@@]6(C)CC[C@H](O[C@@H]7O[C@H](CO[C@@H]8OC[C@H](O)[C@H](O)[C@H]8O)[C@@H](O)[C@H](O)[C@H]7O)C(C)(C)C6CC[C@@]5(C)[C@]3(C)C[C@H]4O)OC[C@@H](O)[C@@H]2O)[C@H](O)[C@H](O[C@@H]2OC[C@](O)(CO)[C@H]2O)[C@H]1O[C@@H]1OC[C@H](O)[C@H](O[C@@H]2OC[C@@H](O)[C@H](O)[C@H]2O)[C@H]1O (stereo partly drawn) |  | inactive: 88.4% [at 9.25 µM]
CC/C=C\CCO[C@@H]1O[C@H](CO)[C@@H](O)[C@H](O)[C@H]1O | inactive | 
OCc1ccc(O[C@@H]2O[C@H](CO)[C@@H](O)[C@H](O)[C@H]2O)cc1 | inactive | 
